Structures are written as SMILES. This is one part of the list.

The test system of one test is HSkMC. As to the kind of experiment: cytotoxicity call (relative viability < 0.9). The note with it: 10 µM.
The next test deals with HepG2. As to the kind of experiment: cytotoxicity call (relative viability < 0.9). The note with it: 10 µM.
In the next test the test system is S. aureus RN4220. As to the kind of experiment: growth inhibition call (relative growth <= 0.2). The note with it: 50 µM.

Consider `O=c1cc(-c2ccccc2)oc2cc(O)cc(O)c12`, for which the cytotoxicity call in the test on HSkMC and with HepG2 was “inactive” each time. Besides, in the test with S. aureus RN4220, the growth inhibition call is “inactive”.
Turning to `COc1ccc(NC(=O)Nc2ccc3c(c2)CC(=O)N([C@H](C)CO)C[C@@H](C)[C@@H](CN(C)C(=O)Nc2cccc4ccccc24)O3)cc1`, the cytotoxicity call in the test with HSkMC and in the test with HepG2 was “inactive” in each case. For the same molecule, the growth inhibition call in the test with S. aureus RN4220 is “inactive”.
As for `C[C@@H]1CN([C@@H](C)CO)C(=O)c2cc(NC(=O)Cc3ccccc3)ccc2O[C@@H](C)CCCCO[C@H]1CN(C)Cc1ccccc1`, the cytotoxicity call with HSkMC and in the test with HepG2 was “inactive” throughout. The growth inhibition call with S. aureus RN4220 is “inactive”.
As for `Cc1[nH]c(N)nc(=O)c1CC(=O)O`, the cytotoxicity call in the test on HSkMC and in the test on HepG2 was “inactive” each time. Moreover, in the test with S. aureus RN4220, the growth inhibition call was “inactive”.
Turning to `CC1(C)OC(=O)C2(C(=O)O1)[C@@H](c1ccc(-c3cccc(Br)c3)cc1)CC(=O)C[C@H]2c1ccccc1`, the cytotoxicity call in the test on HSkMC and in the test on HepG2 was “inactive” in each case. Moreover, the growth inhibition call in the test with S. aureus RN4220 was “inactive”.
Turning to `C[C@@H]1CN([C@@H](C)CO)C(=O)CCCn2cc(nn2)CO[C@H]1CN(C)C(=O)Nc1ccccc1C(F)(F)F`, the cytotoxicity call in the test on HSkMC and in the test with HepG2 was “inactive” throughout. Also, the growth inhibition call with S. aureus RN4220 is “inactive”.
Turning to `C=CCOC(=O)[C@H]1[C@@H]2C(=O)O[C@@H](c3ccccc3)[C@@H](c3ccccc3)N2[C@@H](c2ccc(OCCOC(=O)[C@H]3C[C@H]4C(=O)N[C@@H](CCCCNC(C)=O)C(=O)N4[C@H]3c3cccc(OCCO)c3)cc2)[C@]12C(=O)Nc1ccc(I)cc12`, the cytotoxicity call in the test on HSkMC and in the test on HepG2 was “inactive” in each case. Further, the growth inhibition call with S. aureus RN4220 is “inactive”.
In the case of `O=C(C[C@H]1C[C@@H]2c3cc(NC(=O)c4ccc5c(c4)OCO5)ccc3O[C@@H]2[C@@H](CO)O1)NCc1ccc(Oc2ccccc2)cc1`, in the test on HSkMC, the cytotoxicity call was “inactive”. The cytotoxicity call in the test with HepG2 was “active”. In the test on S. aureus RN4220, the growth inhibition call was “inactive”.
On to `C[C@@H]1CCCCO[C@H](CN(C)C(=O)Nc2ccc3c(c2)OCO3)[C@H](C)CN([C@H](C)CO)C(=O)c2cc(NS(=O)(=O)c3cccs3)ccc2O1`, for which the cytotoxicity call in the test on HSkMC and in the test with HepG2 was “inactive” each time. In the test with S. aureus RN4220, the growth inhibition call is “inactive”.
As to `Clc1ccc(C2=Nc3cccc4cccc(c34)N2)cc1`, the cytotoxicity call with HSkMC and in the test with HepG2 was “inactive” throughout. Further, in the test on S. aureus RN4220, the growth inhibition call is “inactive”.
As to `COc1ccc(S(=O)(=O)N(C)C[C@@H]2OCc3cn(nn3)CCCC(=O)N([C@H](C)CO)C[C@H]2C)cc1`, the cytotoxicity call with HSkMC and in the test with HepG2 was “inactive” throughout. Also, the growth inhibition call with S. aureus RN4220 is “inactive”.
Take `COc1ccc(-c2cc(=O)c3c(O)c(OC)c(OC)c(OC)c3o2)cc1`: the cytotoxicity call in the test with HSkMC was “inactive”. The cytotoxicity call in the test on HepG2 is “active”. Moreover, the growth inhibition call in the test on S. aureus RN4220 was “inactive”.
Regarding `Cc1ccc(S(=O)(=O)N(C)C[C@H]2Oc3ccc(NC(=O)NC(C)C)cc3C(=O)N([C@H](C)CO)C[C@@H]2C)cc1`, the cytotoxicity call in the test with HSkMC and with HepG2 was “inactive” throughout. The growth inhibition call in the test with S. aureus RN4220 is “inactive”.
On to `CC(=O)OCC1=C[C@@H]2OC(=O)C3=CO[C@@H](O[C@H]4O[C@H](CO)[C@@H](O)[C@H](O)[C@H]4O)[C@H]1[C@@H]32`, for which the cytotoxicity call with HSkMC and in the test on HepG2 was “inactive” each time. Moreover, in the test on S. aureus RN4220, the growth inhibition call was “inactive”.
For the molecule `O=C(C[C@H]1C[C@@H]2c3cc(NC(=O)Nc4ccc(C(F)(F)F)cc4)ccc3O[C@@H]2[C@@H](CO)O1)NCCc1ccccc1`, the cytotoxicity call in the test with HSkMC and with HepG2 was “inactive” throughout. Further, in the test with S. aureus RN4220, the growth inhibition call is “inactive”.
On to `CC(C)NC(=O)Nc1ccc2c(c1)C(=O)N([C@@H](C)CO)C[C@H](C)[C@H](CN(C)Cc1ccc(C(=O)O)cc1)O2`, for which the cytotoxicity call in the test on HSkMC and in the test with HepG2 was “inactive” each time. Further, in the test with S. aureus RN4220, the growth inhibition call is “inactive”.
On to `N#Cc1ccc(N2CCCNCC2)nc1`, for which the cytotoxicity call in the test on HSkMC and with HepG2 was “inactive” each time. Besides, in the test on S. aureus RN4220, the growth inhibition call was “inactive”.
In the case of `C[C@@H]1CN([C@@H](C)CO)C(=O)c2cc(NC(=O)CCCN(C)C)ccc2O[C@H]1CN(C)S(=O)(=O)c1ccccc1`, the cytotoxicity call in the test with HSkMC and in the test with HepG2 was “inactive” throughout. Besides, the growth inhibition call in the test on S. aureus RN4220 was “inactive”.
As for `C[C@@H]1CCCCO[C@@H](CN(C)C(=O)CCCN(C)C)[C@H](C)CN([C@@H](C)CO)C(=O)c2cc(NS(C)(=O)=O)ccc2O1`, the cytotoxicity call in the test with HSkMC and in the test on HepG2 was “inactive” each time. Also, the growth inhibition call in the test with S. aureus RN4220 is “inactive”.
For the molecule `C[C@@H]1CN([C@@H](C)CO)C(=O)c2cccc(NC(=O)Nc3ccccc3)c2O[C@@H]1CN(C)Cc1ccc(Cl)c(Cl)c1`, the cytotoxicity call in the test with HSkMC and in the test on HepG2 was “inactive” each time. Moreover, the growth inhibition call with S. aureus RN4220 was “inactive”.
Take `O=C1NC(=S)NC12CCCCC2`: the cytotoxicity call in the test on HSkMC and with HepG2 was “inactive” in each case. In the test with S. aureus RN4220, the growth inhibition call was “inactive”.
With `C[C@H](CO)N1C[C@H](C)[C@@H](CN(C)Cc2ccccc2)Oc2ccc(NC(=O)Nc3cccc4ccccc34)cc2CC1=O`, the cytotoxicity call in the test with HSkMC is “inactive”. Further, the cytotoxicity call in the test on HepG2 is “active”. In the test with S. aureus RN4220, the growth inhibition call was “inactive”.
`C[C@@H]1CN([C@H](C)CO)C(=O)Cc2cc(NC(=O)C3CCCCC3)ccc2O[C@@H]1CN(C)Cc1ccc(C(=O)Nc2ccccc2N)cc1`: in the test on HSkMC, the cytotoxicity call is “inactive”. For the same molecule, the cytotoxicity call in the test with HepG2 was “active”. Besides, in the test with S. aureus RN4220, the growth inhibition call was “inactive”.
Take `C[C@H]1CN([C@@H](C)CO)S(=O)(=O)c2ccc(C#CCN(C)C)cc2O[C@@H]1CN(C)Cc1ccncc1`: the cytotoxicity call in the test with HSkMC and in the test with HepG2 was “inactive” each time. Moreover, in the test on S. aureus RN4220, the growth inhibition call is “inactive”.
Regarding `C[C@@H]1CN([C@H](C)CO)C(=O)Cc2cc(NS(=O)(=O)c3ccccc3)ccc2O[C@@H]1CN(C)Cc1ccc(-c2ccccc2)cc1`, the cytotoxicity call in the test on HSkMC and in the test on HepG2 was “inactive” in each case. For the same molecule, in the test with S. aureus RN4220, the growth inhibition call is “inactive”.
For `COc1ccc(CN(C)C[C@@H]2Oc3c(NC(=O)c4cc(C)nn4C)cccc3C(=O)N([C@H](C)CO)C[C@@H]2C)cc1`, the cytotoxicity call in the test on HSkMC (human skeletal muscle cells) and in the test with HepG2 was “inactive” in each case. Besides, the growth inhibition call with S. aureus RN4220 was “inactive”.

These data come from the antibiotic and cytotoxicity screens of Wong et al. (2023).
